# Data from the supplement of paper PMC9542798.
# Tests used:
# Assay in all cases: minimum inhibitory concentration
# Tetracycline = compound: CN(C)[C@@H]1C(O)=C(C(N)=O)C(=O)[C@@]2(O)C(O)=C3C(=O)c4c(O)cccc4[C@@](C)(O)[C@H]3C[C@@H]12 [Tetracycline]
# Description: (§1)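 Broth microdilution MIC per ISO 10932 on precoated VetMIC Lact-1 plates (tylosin, vancomycin and ampicillin plates prepared manually) against lactic acid bacteria and bifidobacteria isolates. Plates were read visually after 48 h anaerobic incubation (bifidobacteria 72 h; enterococci and staphylococci 24 h aerobic) at species-specific temperatures of 30 or 37 °C. Values prefixed with < or > are outside the tested dilution range.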
# Kanamycin = compound: NC[C@H]1O[C@H](O[C@H]2[C@H](O)[C@@H](O[C@H]3O[C@H](CO)[C@@H](O)[C@H](N)[C@H]3O)[C@H](N)C[C@@H]2N)[C@H](O)[C@@H](O)[C@@H]1O [Kanamycin]
# Description: as §1
# Clindamycin = compound: CCC[C@@H]1C[C@@H](C(=O)N[C@@H]([C@H]2O[C@H](SC)[C@H](O)[C@@H](O)[C@H]2O)[C@H](C)Cl)N(C)C1 [Clindamycin]
# Description: as §1
# Neomycin = compound: NC[C@@H]1O[C@H](O[C@H]2[C@@H](O)[C@H](O[C@@H]3[C@@H](O)[C@H](N)C[C@H](N)[C@H]3O[C@H]3O[C@H](CN)[C@@H](O)[C@H](O)[C@H]3N)O[C@@H]2CO)[C@H](N)[C@@H](O)[C@@H]1O [Neomycin]
# Description: as §1
# Gentamicin = compound: CNC(C)C1CCC(N)C(OC2C(N)CC(N)C(OC3OCC(C)(O)C(NC)C3O)C2O)O1 [Gentamicin]
# Description: as §1
# Ampicillin = compound: CC1(C)S[C@@H]2[C@H](NC(=O)[C@H](N)c3ccccc3)C(=O)N2[C@H]1C(=O)O [Ampicillin]
# Description: as §1
# Streptomycin = compound: CN[C@@H]1[C@H](O[C@H]2[C@H](O[C@H]3[C@H](O)[C@@H](O)[C@H](N=C(N)N)[C@@H](O)[C@@H]3N=C(N)N)O[C@@H](C)[C@]2(O)C=O)O[C@@H](CO)[C@H](O)[C@H]1O [Streptomycin]
# Description: as §1
# Erythromycin = compound: CC[C@H]1OC(=O)[C@H](C)[C@@H](O[C@H]2C[C@@](C)(OC)[C@@H](O)[C@H](C)O2)[C@H](C)[C@@H](O[C@@H]2O[C@H](C)C[C@H](N(C)C)[C@H]2O)[C@](C)(O)C[C@@H](C)C(=O)[C@H](C)[C@@H](O)[C@]1(C)O [Erythromycin]
# Description: as §1
# Vancomycin = compound: CN[C@H](CC(C)C)C(=O)N[C@H]1C(=O)N[C@@H](CC(N)=O)C(=O)N[C@H]2C(=O)N[C@H]3C(=O)N[C@H](C(=O)N[C@H](C(=O)O)c4cc(O)cc(O)c4-c4cc3ccc4O)[C@H](O)c3ccc(c(Cl)c3)Oc3cc2cc(c3O[C@@H]2O[C@H](CO)[C@@H](O)[C@H](O)[C@H]2O[C@H]2C[C@](C)(N)[C@H](O)[C@H](C)O2)Oc2ccc(cc2Cl)[C@H]1O [Vancomycin]
# Description: as §1
# Chloramphenicol = compound: O=C(N[C@H](CO)[C@H](O)c1ccc([N+](=O)[O-])cc1)C(Cl)Cl [Chloramphenicol]
# Description: as §1
# 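Also: isolates derived from commercial starter, protective, probiotic or feed-additive cultures, from fermented products, from human gut mucosa or feces, and from human milk or colostrum.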
Test System,minimum inhibitory concentration (Tetracycline) [µg/mL],minimum inhibitory concentration (Kanamycin) [µg/mL],minimum inhibitory concentration (Clindamycin) [µg/mL],minimum inhibitory concentration (Neomycin) [µg/mL],minimum inhibitory concentration (Gentamicin) [µg/mL],minimum inhibitory concentration (Ampicillin) [µg/mL],minimum inhibitory concentration (Streptomycin) [µg/mL],minimum inhibitory concentration (Erythromycin) [µg/mL],minimum inhibitory concentration (Vancomycin) [µg/mL],minimum inhibitory concentration (Chloramphenicol) [µg/mL]
Bifidobacterium adolescentis IM662 (strain group: human intestinal mucosa or faeces),2,1020,4,256,128,0.125,> 256,0.25,0.5,2
Bifidobacterium adolescentis IM663 (strain group: human intestinal mucosa or faeces),2,512,4,128,64,0.25,64,0.25,0.5,2
Bifidobacterium adolescentis IM667 (strain group: human intestinal mucosa or faeces),0.5,128,0.25,32,8,0.25,64,0.5,1,2
Bifidobacterium adolescentis IM670 (strain group: human intestinal mucosa or faeces),2,256,4,128,64,0.25,64,0.12,0.5,1
Bifidobacterium adolescentis IM671 (strain group: human intestinal mucosa or faeces),16,512,0.06,256,128,0.125,128,0.12,0.5,2
Bifidobacterium adolescentis IM672 (strain group: human intestinal mucosa or faeces),2,128,0.5,128,16,1,> 256,> 8,2,4
Bifidobacterium adolescentis IM673 (strain group: human intestinal mucosa or faeces),1,1020,0.12,> 256,64,1,64,0.25,0.5,1
Bifidobacterium adolescentis IM674 (strain group: human intestinal mucosa or faeces),0.5,256,0.25,16,32,0.125,16,8,2,1
Bifidobacterium adolescentis IM676 (strain group: human intestinal mucosa or faeces),16,256,0.06,16,32,0.063,32,0.12,0.5,2
Bifidobacterium adolescentis IM677 (strain group: human intestinal mucosa or faeces),1,512,0.12,> 256,64,2,128,0.12,< 0.25,1
Bifidobacterium adolescentis IM678 (strain group: human intestinal mucosa or faeces),16,256,0.06,32,32,0.125,32,0.12,0.5,2
Bifidobacterium adolescentis IM679 (strain group: human intestinal mucosa or faeces),16,512,0.06,256,256,0.25,128,0.12,0.5,2
Bifidobacterium adolescentis IM680 (strain group: human intestinal mucosa or faeces),1,512,0.06,64,64,0.063,128,0.12,< 0.25,2
Bifidobacterium adolescentis IM681 (strain group: human intestinal mucosa or faeces),0.5,128,< 0.03,64,16,0.063,16,< 0.016,< 0.25,2
Bifidobacterium adolescentis IM683 (strain group: human intestinal mucosa or faeces),1,128,0.12,64,32,< 0.032,32,0.06,0.5,2
Bifidobacterium adolescentis IM684 (strain group: human intestinal mucosa or faeces),16,512,4,256,128,0.125,128,0.25,0.5,2
Bifidobacterium adolescentis IM714 (strain group: human intestinal mucosa or faeces),1,512,0.06,128,128,0.125,128,0.12,0.5,2
Bifidobacterium adolescentis IM751 (strain group: human intestinal mucosa or faeces),16,1020,0.12,256,128,8,256,0.25,0.5,2
Bifidobacterium adolescentis IM752 (strain group: human intestinal mucosa or faeces),16,256,0.12,64,64,8,64,0.25,0.5,2
Bifidobacterium adolescentis IM755 (strain group: human intestinal mucosa or faeces),16,512,0.12,256,128,0.063,128,0.25,0.5,2
Bifidobacterium adolescentis IM756 (strain group: human intestinal mucosa or faeces),1,512,0.06,128,64,0.125,256,0.12,0.5,2
Bifidobacterium adolescentis IM757 (strain group: human intestinal mucosa or faeces),1,512,0.06,64,64,0.25,128,0.12,0.5,2
Bifidobacterium adolescentis IM758 (strain group: human intestinal mucosa or faeces),1,512,0.12,256,128,0.125,128,0.12,0.5,2
Bifidobacterium adolescentis IM760 (strain group: human intestinal mucosa or faeces),1,1020,0.12,128,256,0.063,256,0.12,0.5,2
Bifidobacterium adolescentis IM761 (strain group: human intestinal mucosa or faeces),1,1020,0.06,128,256,0.25,128,0.12,0.5,2
Bifidobacterium adolescentis IM763 (strain group: human intestinal mucosa or faeces),1,1020,0.06,128,128,0.125,256,0.12,0.5,2
Bifidobacterium adolescentis IM764 (strain group: human intestinal mucosa or faeces),0.5,256,< 0.03,64,64,0.125,32,< 0.016,< 0.25,1
Lacticaseibacillus paracasei/casei IM1458 (strain group: probiotic strains),2,64,0.5,,8,0.5,32,< 0.12,> 8,8
Lactobacillus gallinarum IM1460 (strain group: probiotic strains),4,64,2,,8,1,16,< 0.12,1,4
